The supplement of paper PMC8728848
This is one part of the list.

Legend:
Experiment in all cases: glycan array binding signal (z-score within array); higher = stronger binding
Settings in all cases: glycan notation: IUPAC condensed, linker removed
[1] = target: Neu5Ac(a2-3)GalNAc(b1-4)GlcNAc
Procedure, shortened: (§1)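 The Consortium for Functional Glycomics database supplied 3228 glycan arrays, of which those lacking an available protein sequence were dropped. The binding signal, a within-array Z-score, was averaged across arrays of the same protein sequence and across linkers. Negative scores can be read as non-binding.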

[2] = target: Neu5Ac(a2-3)[GalNAc(b1-4)]Gal(b1-4)Glc
Procedure, shortened: as §1

[3] = target: Neu5Ac(a2-3)[GalNAc(b1-4)]Gal(b1-4)GlcNAc
Procedure, shortened: as §1

[4] = target: Neu5Ac(a2-3)[GalNAc(b1-4)]Gal(b1-4)GlcNAc(b1-3)GalNAc
Procedure, shortened: as §1

[5] = target: Neu5Ac(a2-3)[Neu5Ac(a2-6)]GalNAc
Procedure, shortened: as §1

Neu5Ac(a2-6)Gal = target: Neu5Ac(a2-6)Gal
Procedure, shortened: as §1

[6] = target: Neu5Ac(a2-6)Gal(b1-3)GlcNAc(b1-3)[Gal(b1-4)GlcNAc(b1-6)]Gal(b1-4)Glc
Procedure, shortened: as §1

Neu5Ac(a2-6)Gal(b1-4)Glc = target: Neu5Ac(a2-6)Gal(b1-4)Glc
Procedure, shortened: as §1

[7] = target: Neu5Ac(a2-6)Gal(b1-4)GlcNAc
Procedure, shortened: as §1

[8] = target: Neu5Ac(a2-6)Gal(b1-4)GlcNAc(b1-2)Man
Procedure, shortened: as §1

[9] = target: Neu5Ac(a2-6)Gal(b1-4)GlcNAc(b1-2)Man(a1-3)Man(b1-4)GlcNAc(b1-4)GlcNAc
Procedure, shortened: as §1

[10] = target: Neu5Ac(a2-6)Gal(b1-4)GlcNAc(b1-2)Man(a1-3)[Gal(b1-4)GlcNAc(b1-2)Man(a1-6)]Man(b1-4)GlcNAc(b1-4)GlcNAc
Procedure, shortened: as §1

[11] = target: Neu5Ac(a2-6)Gal(b1-4)GlcNAc(b1-2)Man(a1-3)[GlcNAc(b1-2)Man(a1-6)]Man(b1-4)GlcNAc(b1-4)GlcNAc
Procedure, shortened: as §1

[12] = target: Neu5Ac(a2-6)Gal(b1-4)GlcNAc(b1-2)Man(a1-3)[GlcNAc(b1-4)][Neu5Ac(a2-6)Gal(b1-4)GlcNAc(b1-2)Man(a1-6)]Man(b1-4)GlcNAc(b1-4)GlcNAc
Procedure, shortened: as §1

[13] = target: Neu5Ac(a2-6)Gal(b1-4)GlcNAc(b1-2)Man(a1-3)[Man(a1-6)]Man(b1-4)GlcNAc(b1-4)GlcNAc
Procedure, shortened: as §1

[14] = target: Neu5Ac(a2-6)Gal(b1-4)GlcNAc(b1-2)Man(a1-3)[Neu5Ac(a2-3)Gal(b1-4)GlcNAc(b1-2)Man(a1-6)]Man(b1-4)GlcNAc(b1-4)GlcNAc
Procedure, shortened: as §1

[15] = target: Neu5Ac(a2-6)Gal(b1-4)GlcNAc(b1-2)Man(a1-3)[Neu5Ac(a2-6)Gal(b1-4)GlcNAc(b1-2)Man(a1-6)]Man(b1-4)GlcNAc(b1-4)GlcNAc
Procedure, shortened: as §1

[16] = target: Neu5Ac(a2-6)Gal(b1-4)GlcNAc(b1-2)Man(a1-3)[Neu5Ac(a2-6)Gal(b1-4)GlcNAc(b1-2)Man(a1-6)]Man(b1-4)GlcNAc(b1-4)[Fuc(a1-6)]GlcNAc
Procedure, shortened: as §1

[17] = target: Neu5Ac(a2-6)Gal(b1-4)GlcNAc(b1-2)Man(a1-6)Man(b1-4)GlcNAc(b1-4)GlcNAc
Procedure, shortened: as §1

[18] = target: Neu5Ac(a2-6)Gal(b1-4)GlcNAc(b1-2)Man(a1-6)[Gal(b1-4)GlcNAc(b1-2)Man(a1-3)]Man(b1-4)GlcNAc(b1-4)GlcNAc
Procedure, shortened: as §1

[19] = target: Neu5Ac(a2-6)Gal(b1-4)GlcNAc(b1-2)Man(a1-6)[GlcNAc(b1-2)Man(a1-3)]Man(b1-4)GlcNAc(b1-4)GlcNAc
Procedure, shortened: as §1

[20] = target: Neu5Ac(a2-6)Gal(b1-4)GlcNAc(b1-2)Man(a1-6)[Man(a1-3)]Man(b1-4)GlcNAc(b1-4)GlcNAc
Procedure, shortened: as §1

[21] = target: Neu5Ac(a2-6)Gal(b1-4)GlcNAc(b1-2)[Neu5Ac(a2-6)Gal(b1-4)GlcNAc(b1-4)]Man(a1-3)[GlcNAc(b1-4)][Neu5Ac(a2-6)Gal(b1-4)GlcNAc(b1-2)[Neu5Ac(a2-6)Gal(b1-4)GlcNAc(b1-6)]Man(a1-6)]Man(b1-4)GlcNAc(b1-4)GlcNAc
Procedure, shortened: as §1

[22] = target: Neu5Ac(a2-6)Gal(b1-4)GlcNAc(b1-2)[Neu5Ac(a2-6)Gal(b1-4)GlcNAc(b1-4)]Man(a1-3)[GlcNAc(b1-4)][Neu5Ac(a2-6)Gal(b1-4)GlcNAc(b1-4)Man(a1-6)]Man(b1-4)GlcNAc(b1-4)GlcNAc
Procedure, shortened: as §1

[23] = target: Neu5Ac(a2-6)Gal(b1-4)GlcNAc(b1-2)[Neu5Ac(a2-6)Gal(b1-4)GlcNAc(b1-6)]Man(a1-6)[Neu5Ac(a2-6)Gal(b1-4)GlcNAc(b1-2)Man(a1-3)][GlcNAc(b1-4)]Man(b1-4)GlcNAc(b1-4)GlcNAc
Procedure, shortened: as §1

[24] = target: Neu5Ac(a2-6)Gal(b1-4)GlcNAc(b1-3)Gal(b1-3)GlcNAc
Procedure, shortened: as §1

[25] = target: Neu5Ac(a2-6)Gal(b1-4)GlcNAc(b1-3)Gal(b1-4)GlcNAc
Procedure, shortened: as §1

[26] = target: Neu5Ac(a2-6)Gal(b1-4)GlcNAc(b1-3)Gal(b1-4)GlcNAc(b1-2)Man(a1-3)[Neu5Ac(a2-6)Gal(b1-4)GlcNAc(b1-3)Gal(b1-4)GlcNAc(b1-2)Man(a1-6)]GalNAc
Procedure, shortened: as §1

[27] = target: Neu5Ac(a2-6)Gal(b1-4)GlcNAc(b1-3)Gal(b1-4)GlcNAc(b1-3)Gal(b1-4)GlcNAc
Procedure, shortened: as §1

[28] = target: Neu5Ac(a2-6)Gal(b1-4)GlcNAc(b1-3)Gal(b1-4)GlcNAc(b1-3)Gal(b1-4)GlcNAc(b1-2)Man(a1-3)[Neu5Ac(a2-6)Gal(b1-4)GlcNAc(b1-3)Gal(b1-4)GlcNAc(b1-3)Gal(b1-4)GlcNAc(b1-2)Man(a1-6)]GalNAc
Procedure, shortened: as §1

[29] = target: Neu5Ac(a2-6)Gal(b1-4)GlcNAc(b1-3)Gal(b1-4)GlcNAc(b1-3)GalNAc
Procedure, shortened: as §1

[30] = target: Neu5Ac(a2-6)Gal(b1-4)GlcNAc(b1-3)Gal(b1-4)GlcNAc(b1-3)[Neu5Ac(a2-6)Gal(b1-4)GlcNAc(b1-3)Gal(b1-4)GlcNAc(b1-6)]GalNAc
Procedure, shortened: as §1

[31] = target: Neu5Ac(a2-6)Gal(b1-4)GlcNAc(b1-3)Gal(b1-4)GlcNAc(b1-6)[Gal(b1-3)]GalNAc
Procedure, shortened: as §1

[32] = target: Neu5Ac(a2-6)Gal(b1-4)GlcNAc(b1-3)Gal(b1-4)[Fuc(a1-3)]GlcNAc(b1-3)Gal(b1-4)[Fuc(a1-3)]GlcNAc
Procedure, shortened: as §1

[33] = target: Neu5Ac(a2-6)Gal(b1-4)GlcNAc(b1-3)GalNAc
Procedure, shortened: as §1

[34] = target: Neu5Ac(a2-6)Gal(b1-4)GlcNAc(b1-3)[Neu5Ac(a2-6)Gal(b1-4)GlcNAc(b1-6)]GalNAc
Procedure, shortened: as §1

[35] = target: Neu5Ac(a2-6)Gal(b1-4)GlcNAc(b1-6)GalNAc
Procedure, shortened: as §1

[36] = target: Neu5Ac(a2-6)Gal(b1-4)GlcNAc(b1-6)[Gal(b1-3)GlcNAc(b1-3)]Gal(b1-4)Glc
Procedure, shortened: as §1

B1: HPL (Tachypleus tridentatus) (protein)
chain: MEDDCTCVTDRSLEGKLMKHPSTPAVYQILDGCRRLVPNPPTYNNIYKNWECIQSNILEKLLCKCDSLSNGAELIKGSGDTVYLLSNGVKRPIADPETFNGFCFDWNKIKTYSDIVINSLSTGPIIIIKHHHHHH
glycan array binding signal (z-score) [1]: -0.267
glycan array binding signal (z-score) [2]: -0.391
glycan array binding signal (z-score) [3]: -0.232
glycan array binding signal (z-score) [4]: -0.001
glycan array binding signal (z-score) [5]: -0.029
glycan array binding signal (z-score) (Neu5Ac(a2-6)Gal): -0.478
glycan array binding signal (z-score) [6]: -0.336
glycan array binding signal (z-score) (Neu5Ac(a2-6)Gal(b1-4)Glc): -0.295
glycan array binding signal (z-score) [7]: -0.277
glycan array binding signal (z-score) [8]: 0.59
glycan array binding signal (z-score) [9]: 0.129
glycan array binding signal (z-score) [10]: -0.071
glycan array binding signal (z-score) [11]: -0.18
glycan array binding signal (z-score) [12]: -0.365
glycan array binding signal (z-score) [13]: 0.476
glycan array binding signal (z-score) [14]: -0.108
glycan array binding signal (z-score) [15]: -0.095
glycan array binding signal (z-score) [16]: 0.007
glycan array binding signal (z-score) [17]: -0.191
glycan array binding signal (z-score) [18]: -0.31
glycan array binding signal (z-score) [19]: -0.077
glycan array binding signal (z-score) [20]: 0.027
glycan array binding signal (z-score) [21]: -0.346
glycan array binding signal (z-score) [22]: -0.34
glycan array binding signal (z-score) [23]: -0.37
glycan array binding signal (z-score) [24]: -0.175
glycan array binding signal (z-score) [25]: -0.252
glycan array binding signal (z-score) [26]: 0.1
glycan array binding signal (z-score) [27]: -0.069
glycan array binding signal (z-score) [28]: 0.508
glycan array binding signal (z-score) [29]: -0.144
glycan array binding signal (z-score) [30]: 0.169
glycan array binding signal (z-score) [31]: -0.132
glycan array binding signal (z-score) [32]: -0.441
glycan array binding signal (z-score) [33]: 0.38
glycan array binding signal (z-score) [34]: 0.127
glycan array binding signal (z-score) [35]: 0.774
glycan array binding signal (z-score) [36]: -0.279
